From the supplement of paper PMC10724272
MIC of invasive clinical C. tropicalis isolates, CLSI broth microdilution (fluconazole 0.12-256 mg/L, up to 1,024 for the azole-resistant cluster and its neighbour group; other ranges not stated); higher = less susceptible. Call: susceptible or wild type [S] / resistant or non-wild type [R] by CLSI breakpoints or cut-offs; intermediate and dose-dependent carry no call. '<=' and '>=' at the end values are inferred; the source marks only some of them. Isolates are numbered anew.

How the values were obtained:
Experiment in all cases: CLSI broth microdilution.
micafungin = compound: CCCCCOc1ccc(-c2cc(-c3ccc(C(=O)N[C@H]4C[C@@H](O)[C@@H](O)NC(=O)[C@@H]5[C@@H](O)[C@@H](C)CN5C(=O)[C@H]([C@H](O)CC(N)=O)NC(=O)[C@H]([C@H](O)[C@@H](O)c5ccc(O)c(OS(=O)(=O)O)c5)NC(=O)[C@@H]5C[C@@H](O)CN5C(=O)[C@H]([C@@H](C)O)NC4=O)cc3)no2)cc1 [micafungin]
anidulafungin = compound: CCCCCOc1ccc(-c2ccc(-c3ccc(C(=O)N[C@H]4C[C@@H](O)[C@@H](O)NC(=O)[C@@H]5[C@@H](O)[C@@H](C)CN5C(=O)[C@H]([C@@H](C)O)NC(=O)[C@H]([C@H](O)[C@@H](O)c5ccc(O)cc5)NC(=O)[C@@H]5C[C@@H](O)CN5C(=O)[C@H]([C@@H](C)O)NC4=O)cc3)cc2)cc1 [anidulafungin]
caspofungin = compound: CC[C@H](C)C[C@H](C)CCCCCCCCC(=O)N[C@H]1C[C@@H](O)[C@@H](NCCN)NC(=O)[C@@H]2[C@@H](O)CCN2C(=O)[C@H]([C@H](O)CCN)NC(=O)[C@H]([C@H](O)[C@@H](O)c2ccc(O)cc2)NC(=O)[C@@H]2C[C@@H](O)CN2C(=O)[C@H]([C@@H](C)O)NC1=O [caspofungin]
posaconazole = compound: CC[C@@H]([C@H](C)O)n1ncn(-c2ccc(N3CCN(c4ccc(OC[C@@H]5CO[C@@](Cn6cncn6)(c6ccc(F)cc6F)C5)cc4)CC3)cc2)c1=O [posaconazole]
fluconazole = compound: OC(Cn1cncn1)(Cn1cncn1)c1ccc(F)cc1F [fluconazole]
voriconazole = compound: C[C@@H](c1ncncc1F)[C@](O)(Cn1cncn1)c1ccc(F)cc1F [voriconazole]
flucytosine = compound: Nc1[nH]c(=O)ncc1F [flucytosine]
amphotericin B = compound: C[C@@H]1[C@H](O)[C@@H](C)/C=C/C=C/C=C/C=C/C=C/C=C/C=C/[C@H](O[C@@H]2O[C@H](C)[C@@H](O)[C@H](N)[C@@H]2O)C[C@@H]2O[C@](O)(C[C@@H](O)C[C@@H](O)[C@H](O)CC[C@@H](O)C[C@@H](O)CC(=O)O[C@H]1C)C[C@H](O)[C@H]2C(=O)O [amphotericin B]
itraconazole = compound: CCC(C)n1ncn(-c2ccc(N3CCN(c4ccc(OCC5COC(Cn6cncn6)(c6ccc(Cl)cc6Cl)O5)cc4)CC3)cc2)c1=O [itraconazole]

Test System | MIC (micafungin) | MIC (anidulafungin) | MIC (caspofungin) | MIC (posaconazole) | MIC (fluconazole) | MIC (voriconazole) | MIC (flucytosine) | MIC (amphotericin B) | MIC (itraconazole)
Candida tropicalis isolate 312 (ERG11 copies: 2, Erg11p: Y132F, S154F (homozygous)) | 0.03 mg/L [S] | 0.03 mg/L [S] | 0.06 mg/L [S] | 0.5 mg/L [R] | 128 mg/L [R] | 2 mg/L [R] | ≤ 0.06 mg/L [S] | 1 mg/L [S] | 0.5 mg/L [S]
Candida tropicalis isolate 43 (ERG11 copies: 10, Erg11p: Y132F, S154F (homozygous)) | 0.03 mg/L [S] | ≤ 0.015 mg/L [S] | 0.03 mg/L [S] | 0.25 mg/L [S] | 4 mg/L | 0.25 mg/L | ≤ 0.06 mg/L [S] | 0.25 mg/L [S] | 0.25 mg/L [S]
Candida tropicalis isolate 291 (ERG11 copies: 2, Erg11p: no key change) | 0.03 mg/L [S] | ≤ 0.015 mg/L [S] | 0.03 mg/L [S] | 0.03 mg/L [S] | 0.25 mg/L [S] | 0.015 mg/L [S] | ≤ 0.06 mg/L [S] | 1 mg/L [S] | 0.06 mg/L [S]
Candida tropicalis isolate 408 (ERG11 copies: 2, Erg11p: no key change) | 0.03 mg/L [S] | ≤ 0.015 mg/L [S] | 0.03 mg/L [S] | 0.5 mg/L [R] | 8 mg/L [R] | 0.5 mg/L | ≤ 0.06 mg/L [S] | 1 mg/L [S] | 0.5 mg/L [S]
Candida tropicalis isolate 442 (ERG11 copies: 2, Erg11p: no key change) | 0.03 mg/L [S] | 0.03 mg/L [S] | 0.03 mg/L [S] | 0.06 mg/L [S] | 1 mg/L [S] | 0.03 mg/L [S] | ≤ 0.06 mg/L [S] | 0.5 mg/L [S] | 0.06 mg/L [S]
Candida tropicalis isolate 270 (ERG11 copies: 2, Erg11p: no key change) | 0.06 mg/L [S] | 0.12 mg/L [S] | 0.12 mg/L [S] | 0.12 mg/L [S] | 1 mg/L [S] | 0.12 mg/L [S] | ≤ 0.06 mg/L [S] | 0.5 mg/L [S] | 0.12 mg/L [S]
Candida tropicalis isolate 257 (ERG11 copies: 2, Erg11p: no key change) | 0.03 mg/L [S] | ≤ 0.015 mg/L [S] | 0.015 mg/L [S] | 0.5 mg/L [R] | 2 mg/L [S] | 0.25 mg/L | ≤ 0.06 mg/L [S] | 1 mg/L [S] | 0.5 mg/L [S]
Candida tropicalis isolate 8 (ERG11 copies: 2, Erg11p: no key change) | 0.03 mg/L [S] | 0.06 mg/L [S] | 0.06 mg/L [S] | 0.5 mg/L [R] | 2 mg/L [S] | 0.25 mg/L | ≤ 0.06 mg/L [S] | 1 mg/L [S] | 0.5 mg/L [S]
Candida tropicalis isolate 200 (ERG11 copies: 2, Erg11p: no key change) | 0.03 mg/L [S] | 0.12 mg/L [S] | 0.12 mg/L [S] | 0.06 mg/L [S] | 0.5 mg/L [S] | 0.03 mg/L [S] | ≤ 0.06 mg/L [S] | 0.5 mg/L [S] | 0.12 mg/L [S]
Candida tropicalis isolate 322 (ERG11 copies: 2, Erg11p: no key change) | 0.015 mg/L [S] | ≤ 0.015 mg/L [S] | 0.015 mg/L [S] | 0.06 mg/L [S] | 1 mg/L [S] | 0.03 mg/L [S] | ≤ 0.06 mg/L [S] | 1 mg/L [S] | 0.12 mg/L [S]
Candida tropicalis isolate 136 (ERG11 copies: 2, Erg11p: no key change) | 0.03 mg/L [S] | 0.03 mg/L [S] | 0.03 mg/L [S] | 0.06 mg/L [S] | 1 mg/L [S] | 0.03 mg/L [S] | ≤ 0.06 mg/L [S] | 0.5 mg/L [S] | 0.06 mg/L [S]
Candida tropicalis isolate 192 (ERG11 copies: 2, Erg11p: no key change) | 0.015 mg/L [S] | 0.03 mg/L [S] | 0.03 mg/L [S] | 0.25 mg/L [S] | 2 mg/L [S] | 0.12 mg/L [S] | ≤ 0.06 mg/L [S] | 1 mg/L [S] | 0.25 mg/L [S]
Candida tropicalis isolate 86 (ERG11 copies: 2, Erg11p: no key change) | 0.03 mg/L [S] | 0.03 mg/L [S] | 0.03 mg/L [S] | 0.12 mg/L [S] | 1 mg/L [S] | 0.06 mg/L [S] | ≤ 0.06 mg/L [S] | 0.5 mg/L [S] | 0.12 mg/L [S]
Candida tropicalis isolate 27 (ERG11 copies: 2, Erg11p: no key change) | 0.03 mg/L [S] | 0.12 mg/L [S] | 0.03 mg/L [S] | ≥ 8 mg/L [R] | 128 mg/L [R] | 2 mg/L [R] | ≤ 0.06 mg/L [S] | 0.5 mg/L [S] | ≥ 16 mg/L [R]
Candida tropicalis isolate 45 (ERG11 copies: 2, Erg11p: no key change) | 0.03 mg/L [S] | 0.12 mg/L [S] | 0.06 mg/L [S] | 0.25 mg/L [S] | 2 mg/L [S] | 0.25 mg/L | 0.12 mg/L [S] | 0.5 mg/L [S] | 0.25 mg/L [S]
Candida tropicalis isolate 81 (ERG11 copies: 2, Erg11p: no key change) | 0.03 mg/L [S] | ≤ 0.015 mg/L [S] | 0.03 mg/L [S] | 0.5 mg/L [R] | 2 mg/L [S] | 0.12 mg/L [S] | ≤ 0.06 mg/L [S] | 1 mg/L [S] | 0.25 mg/L [S]
Candida tropicalis isolate 226 (ERG11 copies: 2, Erg11p: no key change) | 0.03 mg/L [S] | ≤ 0.015 mg/L [S] | 0.06 mg/L [S] | 0.5 mg/L [R] | 4 mg/L | 0.25 mg/L | ≤ 0.06 mg/L [S] | 1 mg/L [S] | 0.5 mg/L [S]
Candida tropicalis isolate 260 (ERG11 copies: 2, Erg11p: no key change) | 0.015 mg/L [S] | ≤ 0.015 mg/L [S] | 0.03 mg/L [S] | 0.12 mg/L [S] | 1 mg/L [S] | 0.06 mg/L [S] | ≤ 0.06 mg/L [S] | 0.5 mg/L [S] | 0.12 mg/L [S]
